PubChem BioAssay AID1745845 (National Center for Advancing Translational Sciences (NCATS), 2022)
Screen size: about 360,000 compounds; about 2,600 (0.72%) were called active. Inconclusive means that the source gave no clear call. Such entries were picked first, then a sample of the others. Calls follow the shape of the dose curve; as a rule, active = well fitted inhibition curve with a large enough effect; inconclusive = small, poorly fitted or top-dose-only effect; inactive = no such curve, though single readings can be large or run the other way. Where the call is inconclusive, the potency comes from a doubtful curve fit.

assay: Primary qHTS for Inhibitors of ATXN expression; details: HEK-293 ATXN2-luciferase reporter, luminescence, 24 h; activity change, negative = inhibition: at 57 µM (top of the series); also: nearly all actives have a fitted effect of over 55% in size
How it was run: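 qHTS (up to 57 uM final) was run with 24 h compound exposure of reporter cells at 37 °C. Each well was multiplexed: SteadyGlo luminescence measured ATXN2-luciferase expression after a fluorogenic Gly-Phe-AFC viability readout (25 uM final).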
% is scaled to controls: 0 for no effect and ±100 for the full control effect; potency is read from the fitted curve at half-maximal effect; tags tell the direction and shape of the fitted curve.

Potency, active:
Cn1cc(CN2CCC(C(=O)NC(c3ccc(F)cc3)c3ccc4ccccc4n3)CC2)c2ccccc21 (stereo not drawn) 28.2 µM, CN(c1ccccc1)S(=O)(=O)c1ccc(NC(=O)c2nc(S(C)(=O)=O)ncc2Cl)cc1 14.1 µM, CC1(C)Cc2c(sc(NC(=O)c3ccc(C(=O)c4ccccc4)cc3)c2C(N)=O)C(C)(C)N1 25.1 µM

Potency, inconclusive:
O=C1CC(c2ccccc2)CC2=C1C=Nc1ccccc1N2 (stereo not drawn) 25.1 µM [inhibitor, single point], COc1cc(CN2CCc3nc(N4CCN(c5ccccn5)CC4)ncc3C2)cc(OC)c1OC 2.24 µM [inhibitor, partial curve, poor fit], C=Cc1ccc(Cn2c(C(=O)O)c(CNCc3ccc(F)cc3)c3ccc(C)cc32)cc1 28.2 µM [inhibitor, single point], CCCCN(Cc1ccco1)C(=O)Cn1ncc2c(=O)oc3ccc(C)cc3c21 20 µM [inhibitor, partial curve, poor fit], CCN1C(=O)C(CC(=O)Nc2ccc(OC)cc2)N(CCc2ccc(F)cc2)C1=S (stereo not drawn) 26.7 µM [inhibitor, partial curve, poor fit], Clc1cncc(Cl)c1NNc1c2ccccc2nc2ccccc12 14.1 µM [inhibitor, partial curve, poor fit], CCOc1cccc(NC(=O)C2CC(=O)N(CC)C(=Nc3ccc(F)cc3)S2)c1 (stereo not drawn) 31.6 µM [inhibitor, single point], CC(C)(C)c1ccc(/C=C/C(=O)Nc2ccc(S(N)(=O)=O)cc2)cc1 39.8 µM [inhibitor, single point], O=C(c1cccc(S(=O)(=O)NCc2ccccc2)c1)N1CCN(c2cccc(C(F)(F)F)c2)CC1 39.8 µM [inhibitor, single point], COc1ccc(NC(=O)c2cc(C)on2)cc1OC 39.8 µM [inhibitor, single point], NC(=O)C1(N2CCCCC2)CCN(c2nc(-c3ccccc3)cs2)CC1 39.8 µM [inhibitor, single point], Cc1ccc2c(c1)N(C(=O)CCC(=O)N1CCN(c3cccc(C)c3C)CC1)CCO2 26.7 µM [inhibitor, partial curve], CCn1c(C)nc2cc(C(=O)N/N=C/c3cccc(O)c3O)ccc21 39.8 µM [inhibitor, partial curve, poor fit], CC[C@]12c3[nH]c4ccc(OC)cc4c3CCN1C(=O)C(CC(=O)NC/C=C(\C)CCC=C(C)C)C[C@@H]2C(=O)N1CCN(C(=O)C2CC2)CC1 (stereo partly drawn) 35.5 µM [inhibitor, single point], Cc1ccc2cc(C#N)c(N3CCN(C(=O)c4ccccc4)CC3)nc2c1 37.7 µM [inhibitor, single point], N=c1c2ccccc2nc2n1CCCCCCCCCCC2 15.8 µM [inhibitor, partial curve, poor fit], Cc1ccc(Nc2nc(NCc3ccco3)c3ccccc3n2)cc1 37.7 µM [inhibitor, single point], Cc1nc2nc(C)n(CCN3CCOCC3)c(=O)c2c(-c2cccc([N+](=O)[O-])c2)c1C(=O)CCCCCCCCCCN1CCC(c2ccccc2)(c2ccccc2)CC1 21.2 µM [inhibitor, partial curve, poor fit], CCOC(=O)C1=NOC2(C1)C(=O)Nc1ccc(OC(F)(F)F)cc12 (stereo not drawn) 39.8 µM [inhibitor, single point], CCOC(=O)CC(NC(=O)CCc1c(C)nc2c(-c3ccccc3)c(C)nn2c1C)c1ccc(OC(C)C)cc1 (stereo not drawn) 39.8 µM [inhibitor, single point], CO/N=C/c1ccc(N2CCN(C(=O)c3cccc(Cl)c3)CC2)c([N+](=O)[O-])c1 28.2 µM [inhibitor, partial curve, poor fit], CCOC(=O)COc1ccc(C2C(C(=O)OC)=C(C)NC3=C2C(=O)c2ccccc23)cc1Cl (stereo not drawn) 28.2 µM [inhibitor, partial curve], CCN(CC)C(=O)c1cccc(-c2csc(C(O)c3ccc(F)c(OC)c3)n2)c1 (stereo not drawn) 10 µM [inhibitor, partial curve, poor fit], O=C(Nc1ccc(-c2cn3ccsc3n2)cc1)c1ccc(F)c(S(=O)(=O)N2CCOCC2)c1 39.8 µM [inhibitor, single point], CCCCN1/C(=C/c2ccc3ccccc3[n+]2CC)Sc2ccccc21 3.98 µM [inhibitor, partial curve, poor fit], CCCn1c(=O)c(C(=O)NCc2cccnc2)c(O)c2ccccc21 39.8 µM [inhibitor, single point], CN(C)CCCN(C(=O)C1=COCCO1)c1nc2ccc(Br)cc2s1 28.2 µM [inhibitor, single point], CCCCCOc1ccc(/C(C)=N/NC2=NCCN2)cc1 31.6 µM [inhibitor, partial curve, poor fit], Cc1cc(F)ccc1NC(=O)c1cc(S(=O)(=O)N2CCc3ccccc32)cn1C 3.98 µM [inhibitor, partial curve, poor fit], CC(=O)c1c(C)oc2ccc(N(C(C)=O)S(=O)(=O)c3cccc4cccnc34)cc12 39.8 µM [inhibitor, single point], CCc1nc2ccc(C(=O)Nc3ccc(OC)c(OC)c3)cn2c1N(C)Cc1cccs1 22.4 µM [inhibitor, single point], Cc1ccccc1S(=O)(=O)Cc1ccc(C(=O)N2CCN(c3cccc(Cl)c3)CC2)o1 17.8 µM [inhibitor, partial curve, poor fit], COc1ccccc1C1c2c(-c3ccc(Cl)cc3)n[nH]c2C(=O)N1c1ccc(C)cc1 (stereo not drawn) 39.8 µM [inhibitor, single point], C[C@@H]1CCCCO[C@@H](CN(C)Cc2ccc(C(F)(F)F)cc2)[C@@H](C)CN([C@H](C)CO)C(=O)c2cc(N(C)C)ccc2O1 39.8 µM [inhibitor, single point], COc1cccc(Nc2nc(-c3sc(NC(=O)c4ccco4)nc3C)cs2)c1 1.41 µM [inhibitor, full curve], Cn1c(=O)c([N+](=O)[O-])c(-n2ccnc2)c2ccccc21 26.7 µM [inhibitor, partial curve, poor fit], Cc1cc(F)ccc1C(O)c1ncc(-c2cccc(OCc3ccccc3)c2)[nH]1 (stereo not drawn) 39.8 µM [inhibitor, single point]

Activity change, negative = inhibition, inactive:
COCCN(C(=O)c1snc(C(N)=O)c1N)C(C(=O)NC1CCCCC1)c1ccc(F)cc1 (stereo not drawn) 7.7%, O=S(=O)(Nc1ccc2c(c1)nc1n2CCN(Cc2ccccc2)C1)c1ccc(F)cc1 2.79%, O=C(CSc1ccc2ccccc2c1)N1CCN(c2ccc(O)cc2)CC1 -25.3%, Cn1nc(C(=O)Nc2cccc(Cl)c2)cc1C(=O)Nc1cccc(Cl)c1 -38.6%, Cc1cccc(NS(=O)(=O)c2cccc(C(=O)NCC3(N4CCCCC4)CCCCC3)c2)c1 -5.25%, CCOC(=O)C1CCN(c2ncnc3c2nc2n3CCCCC2)CC1 13.9%, CN(C)c1ccc(C2CC(c3cccc(NS(C)(=O)=O)c3)=NN2C(=O)c2ccccc2)cc1 (stereo not drawn) -14%, Cc1ccc(Cc2nc3ccccc3[nH]2)cc1 29.1%, CC(NS(=O)(=O)c1ccc(Br)cc1)C(c1cccs1)N1CCOCC1 (stereo not drawn) 2.98%, O=C(Nc1cccc(S(=O)(=O)Nc2ccccc2F)c1)c1ccc2ccccc2n1 -18.7%, O=C(NCCO)c1cccc2c1C(=O)c1ccccc1-2 -2.4%, O=C(N/N=C/c1cc([N+](=O)[O-])ccc1O)NC12CC3CC(CC(C3)C1)C2 2.54%, Cc1cccc2sc(NS(C)(=O)=O)nc12 43.6%, N#C/C(=C\c1ccc(N2CCOCC2)cc1)c1ccccc1 92.4%, CC(CC(=O)N1CCc2ccccc21)S(=O)(=O)c1ccc2c(c1)NC(=O)CO2 (stereo not drawn) 8.09%, CCOC(=O)C1(c2csc(N)n2)COC(=O)C1 (stereo not drawn) -0.0235%, O=C(c1ccco1)c1nnn(Cc2ccccc2)c1-c1ccccc1 0.455%, Cc1cc(C)n(-c2nnc(Nc3ccc(C)c(C)c3)c3ccccc23)n1 0.253%, CCOc1ccc(/C=C/C(=O)c2ccccc2)cc1OC 25%, O=C(NCc1cccnc1)C1CCN(S(=O)(=O)c2cc([N+](=O)[O-])ccc2Cl)CC1 -6.13%, CCN(CC)CCn1c(NC(=O)c2ccc(C(F)(F)F)cc2)nc2ccccc21 -14.7%, COC(=O)c1cc(Cl)ccc1OC 6.77%, CCn1c(CCC(=O)Nc2cc(F)ccc2C)nc2cc(S(=O)(=O)N(C)C)ccc21 -7%, CC(C)c1ccc(S(=O)(=O)N2CCC(n3c(C(F)(F)F)nc4cccnc43)CC2)cc1 -4.73%, Cc1ccc(C)c(NC(=O)CN2CCSc3ccc(S(=O)(=O)N4CCCC4)cc32)c1 -13.5%, Cc1ccc(S(=O)(=O)NC2CC(C)(C)NC(C)(C)C2)c(C)c1C -25.6%, Oc1cc(O)cc(C=Cc2ccc(O)c(O)c2)c1 37.1%, Nc1nc(-c2ccccc2)c(CCCNc2ccccc2)c(=O)[nH]1 -1.81%
